Results published in the supplement of paper PMC10126150.
Values marked as one replicate rest on one cluster of the flow cell; about a third of the high ones do not repeat.

Tested on: ATP
Assay: switch fluorescence ratio, 500 uM ATP over buffer (Cy3 cluster intensity, sum of 5 cycles each) (fold (ratio)); higher = stronger signal-on switching upon ATP binding; sequences stand for … in TCGTCGGCAGCGTCAGATGTGTATAAGAGACAGTTTTTTTTTTTTTTTTTTTTTTTTT…TC
Settings: aptamer strand: ATP DNA aptamer (quencher-CACCTGGGGGAGTATTGCGGAGGAAGG + anchor), 100 nM annealed; ATP concentration: 500 uM; one replicate
Summary of the method: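 Five buffer/ATP imaging cycles were run on Cy3-labelled switching-strand clusters on a modified Illumina MiSeq flow-cell, with NaOH stripping and re-annealing between cycles. In each cycle, clusters annealed to 100 nM quencher-labelled ATP aptamer were imaged in selection buffer, then after 15 min with 500 uM ATP at 22 °C. Per cluster, the fluorescence ratio is summed target-cycle over summed buffer-cycle Cy3 intensity, averaged per switch-domain sequence. Only clusters within 100-1000 RFU were kept.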
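Also: ATP exposure 15 min at 22 °C before imaging.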

Sequence | switch fluorescence ratio
GCTTGTGGTG | 1
ACGCAAAGAC | 2.74
GTCGTTTACG | 1
GGGTCGCCCG | 0.942
GAAAGTAGAA | 0.954
GTGAGGAATA | 1.1
TCGCGCCGAC | 1.07
GCCGGAGCT | 1.1
TAATTGATTC | 1.03
TGCGTGCTAC | 1.13
AAACTGTGTC | 0.948
CACGTTACTA | 1.43
GGATTCGGCG | 0.786
ACGTTTATAT | 1
GTACTTACGG | 1.48
TCTAGGATTA | 0.976
TTGGAGGTA | 0.934
TACCGGTAGA | 1.07
CTATTCCCTT | 0.973
GAATCCCCAT | 1.03
TACGACTGGT | 1.02
ATGCTGACGT | 0.986
TACGAGGCGA | 2.08

Sequence | switch fluorescence ratio
CTTTCACGAC | 1.02
CTCATCAGG | 1.13
AATTAATTTC | 1.02
GGAGCTGCGA | 1.05
TTACGTTAAG | 1.49
CCTCTCTATG | 1.28
TATCGATCCG | 0.989
TTCTCACACA | 1.09
CGTGGACCCG | 1.08
TCTCATGACT | 1.04
GATCAATTGT | 0.983
TCCAAGTGGT | 1.01
GATACTGAGG | 1.04
TCGTAGAAT | 0.988
TGTCTTTTTG | 0.996
TCTCTAGAG | 0.972
AATCCTTGGA | 0.955
GGTATACTTC | 1.28
CAACTCGACA | 1.07
ATGATGTCAT | 1.02
GGTCACACGG | 1.01
CTACCAGGGC | 1.4
GGGGACTCTG | 0.991

Sequence | switch fluorescence ratio
GACTCGTGCA | 1.09
AAAAATGGAT | 1.01
GGTACTATTG | 0.993
ACCATGTTCG | 1.03
CGACTCTCGG | 0.969
TTGTATGCAA | 1.04
CATTTGGCAG | 0.994
GTCAGGAATG | 1.05
GGGAGGGGTC | 1.03
GGGTCAGG | 1.05
GGGCAAAAGA | 1.12
TTCTGTTGCC | 0.991
GGGAAGGGTC | 1.02
TAGCAACATG | 1.03
ACTGTGTGGA | 1.03
ATTGGCGCCG | 0.995
GACAGCCGGC | 1.08
ATTAATGGTT | 0.947
GAGGTCGACA | 1.06
AGCAGTGCTG | 0.936
CCTGGTAGGG | 1.04
TCTCAACGTA | 1.07
GCGTCTTTTA | 1.02

Sequence | switch fluorescence ratio
TTGGGGAG | 0.989
CATCTAAAGC | 1.21
CAGGCCTCGT | 1.01
GTCCAACGTT | 0.996
GGTATCCATC | 1
TCAAGATCAA | 1.01
TCAACCCCC | 1.18
GTGATGTGAC | 1.01
GGTCTGCATC | 1.27
ACCGAACGTT | 1.41
GAAGTTGATC | 0.958
ATGATCTCGC | 0.996
ACCTACTGAC | 1.26
AAAGTTGGAG | 1.01
ATTCATGTGC | 1.07
AGTCGTCCGT | 1.05
ACGGATACTC | 2.06
ACGGACTAGC | 1.22
TAGAGTGCAT | 0.993
TACATATAAT | 1.03
ATGCACTCGC | 1
GGATAGATCC | 1.01
CAAAGTAGTA | 0.977

Sequence | switch fluorescence ratio
TCCGAAAGTA | 1.23
GCATAGGGGT | 1.05
CCTTAAGAAG | 0.987
CTATAGCCGG | 1.04
CGACGAGCAC | 3.82
ATTAGCGGAC | 1.22
TTGCAGGCGA | 1.01
GGGAGCGG | 0.963
GACGCCAGAT | 1.39
TTTTCCCTTT | 1.04
AGTCTTAGTG | 0.977
AAGGACAGTT | 1
TTATTGAAAG | 1.01
ATCACCGATT | 0.997
TTTCGGCAGC | 1.05
TATACAAGGT | 1.03
CGAAACTGAG | 1.05
GCCGCCGGTT | 1.1
GTGGATGCCT | 0.95
ATTGTTCGTA | 1.03
TTAGGCGACT | 0.983
ACGCGCGGGT | 1.03
TTGGTATTGC | 0.988

Sequence | switch fluorescence ratio
GATGTGTTTA | 1.02
CACCTACGGA | 1.3
TAATGATC | 1.04
TCCCTCATTA | 1.02
TACTGAAAGG | 1.01
ACAGGATCGC | 0.978
GGTCCACGGG | 1.01
CGGACTACA | 1.08
TGGTGTAGGA | 1.02
ACTTAGGCAG | 1.03
AATGTGGCGT | 0.967
CATGCGAAAA | 1.24
GGTGCATTTT | 1.04
ATTGTCGGAT | 1.02
CAACCTGCGG | 1.04
TACGTGCCCG | 1.09
CAATCGCGAT | 1.01
GATCAGATTG | 1.04
CGTGAGCCCA | 1.04
TCTCGTTTGG | 0.992
GTGTCCCGCA | 0.972
TTTTTGGAG | 0.985
GCCGTGGGCA | 1.01

Sequence | switch fluorescence ratio
CCCGAGGGAA | 1.09
CTGCATTCAG | 1.06
GGTATCATAT | 0.935
GTTCTACCGT | 1.01
GAATCATCTG | 1.02
TTCCGGAATA | 3.06
TTCTGAAAT | 1.11
ATGGCATGTG | 0.981
ACATCGTGGA | 1.02
CCTTCACTTG | 1.07
CGTGTATAAA | 0.961
TGTCAGTACT | 1.04
ATGTAGAAGA | 0.995
TACGATGTAG | 1.06
TGCTGCGTA | 0.955
GTTTGACTAT | 0.974
TGTGTTTACG | 1.02
TGATGAACGA | 1.04
AAAGGAATGA | 0.996
